# Data as given in the supplement of paper PMC3334620.
# In all, about 33,000 sequences were measured (“E-score (-0.5 to 0.5)”: median about -0.056, highest 2% from about 0.38 on). This is one part of the list.
# Target: Stb4 (UniProt P50104)
# Assay: PBM E-score (8-mer binding enrichment) (E-score (-0.5 to 0.5)); higher = stronger / more preferred TF binding; most listed sequences are background and not binding sites
# Conditions: protein concentration: 200 nM; construct: GST-DNA-binding domain
# Outline: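 Universal all-10-mer Agilent arrays, double-stranded by primer extension on fresh or once-stripped slides, were probed with about 100-200 nM GST-tagged yeast transcription factors made by PURExpress. Fluorescent anti-GST detected bound protein, and masliner normalised the scans. E-scores from the Universal PBM Analysis Suite were given to each ungapped eight-base word pooled with its reverse complement.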
row,Sequence,PBM E-score
1,CCAAAAGA,-0.158
2,GTTAGCAA,-0.0621
3,CACCGACG,0.235
4,AGGCGAGC,-0.166
5,ATATCCAC,0.0551
6,AAATGAGC,-0.0462
7,ATTCGGCG,0.333
8,AGGCGTAT,-0.27
9,CGTACCTC,0.0479
10,GGCGAACA,-0.00947
11,CAACGCAA,-0.0807
12,CGTCGTCC,0.0384
13,CCCGGCGG,0.282
14,GCTAACAC,-0.0672
15,ACATGGGG,-0.0245
16,GTCCGGCA,0.163
17,ACGTTTTC,0.0722
18,GTCTGAAC,-0.0286
19,AAGAATTC,-0.0467
20,AAGGCGAA,0.00117
21,AGGCAACC,-0.116
22,ATTAAAAA,0.133
23,TCGTGAGA,0.0565
24,AACCAGGC,-0.0888
25,CTCGCACC,-0.0226

row,Sequence,PBM E-score
1,AAAGGCGC,-0.184
2,TCAAGTCA,-0.133
3,ATATGGGG,-0.0196
4,AAGAAGTA,-0.109
5,AAGATACA,-0.147
6,GGTCTGTA,0.0694
7,CAGTCCCC,-0.362
8,ATGGGGGC,-0.301
9,CACCAAGC,-0.0602
10,AGAGAGCG,-0.0993
11,ACTAGACG,-0.169
12,CACAAATG,-0.269
13,CAACGGAA,0.328
14,GTACGGCA,0.103
15,GCGGACCC,0.14
16,ACCGGCAT,0.293
17,CCAGTGAC,-0.303
18,ATATGAAC,-0.0878
19,GTCACGGA,0.323
20,CAGATTGG,-0.217
21,CAACAATA,-0.056
22,ACCCCCCT,-0.168
23,TACTGTCA,-0.143
24,AGGATTCA,-0.171
25,CTACCGAA,0.365

row,Sequence,PBM E-score
1,CTCCAAGA,-0.311
2,CTGGAGTC,-0.182
3,CGCCTAAC,-0.00571
4,GCTAGTGA,-0.15
5,CGGCGCAG,0.0459
6,AGTACCAC,-0.139
7,ACCCTCAT,-0.161
8,CCGGTTAG,0.287
9,ATACTCCG,0.365
10,AACGAGTG,-0.157
11,TAACAGGA,-0.156
12,CGAAATGC,0.124
13,GCCGATAC,0.328
14,CACGCATC,-0.0761
15,GTGCGACA,-0.0629
16,AGGAATGA,-0.0401
17,ACGCAAGT,-0.16
18,AGTTAGTC,0.00736
19,CGCGGGAC,0.208
20,CATGGCAC,0.00387
21,CGTGGGCA,-0.226
22,CGTATCGA,-0.148
23,AACATTGA,-0.171
24,CCACTCGA,-0.236
25,CGTGAGAA,0.0572

row,Sequence,PBM E-score
1,CACTTCCG,0.397
2,ACTTCCCG,0.354
3,AGTTAGGA,-0.167
4,GGCTAGTA,0.2
5,ACCCTCGT,-0.0252
6,AATTGCGC,0.157
7,CATGGTAA,-0.14
8,CTTTCCAC,0.0376
9,ACGTATAC,-0.0279
10,GTTGGACA,0.0335
11,ATAGAAAG,-0.0667
12,ATACCGCG,0.0592
13,ATTTATTG,-0.197
14,GAGCGCTC,-0.0362
15,TACTATGA,-0.0642
16,AGTCGGAC,0.176
17,CTGCCGCC,0.127
18,GTTGCCTA,-0.067
19,GACCATCA,-0.0356
20,CAAGTTGA,-0.11
21,AAAGTTAA,-0.108
22,ACTTATAC,0.079
23,AAGTAAGT,-0.0616
24,AACGGCAG,0.0735
25,GATCTCGC,-0.101

row,Sequence,PBM E-score
1,CAATTCTC,-0.0291
2,ATTGTGTC,-0.151
3,AACGTTCC,0.21
4,GGAGTTTA,0.0943
5,CTTGAGAA,-0.366
6,ATTTCGTA,-0.191
7,ATACCAAA,-0.0172
8,AACTTCTC,0.0267
9,CCGATTTC,0.274
10,CCCCGCCC,0.337
11,ACAGATAG,-0.112
12,ATGCACTC,-0.228
13,GCTGGGTA,-0.139
14,AACAGTAT,-0.129
15,CCATTGAG,-0.222
16,ACTTATGG,0.0497
17,TAACGGTA,-0.0399
18,TACTTTGA,-0.26
19,GGGTCCGA,0.344
20,CCTGATAA,-0.282
21,CCCCTAAA,-0.201
22,GGATCGCA,0.109
23,CATGGAGA,-0.204
24,CCAGGAGA,-0.217
25,CAGGCTGC,-0.25

row,Sequence,PBM E-score
1,GTATTAAA,0.0474
2,CATCGCTC,0.0959
3,CCTAACAA,-0.248
4,CATAGATA,-0.126
5,TTCGCGAA,0.104
6,CGGAAAGC,0.386
7,ATCTGCCC,-0.0206
8,AAACTTAG,-0.152
9,TCGATACA,-0.156
10,AATGCGGG,0.31
11,ATGGAAGC,0.00369
12,CAGACATC,0.0141
13,ATTAGGAG,-0.0687
14,CCGATAAC,0.32
15,ACAGTGAT,-0.17
16,GTTTTGAA,-0.133
17,GGCGGTAA,0.275
18,AAGGTTCC,0.166
19,ATCGCACC,-0.0362
20,CCAAGTGA,-0.117
21,GGCGTACC,0.157
22,CTTGAATA,0.0123
23,CCTCCCAA,-0.0335
24,GGAGGAGA,-0.00987
25,CAAATTGC,0.0591

row,Sequence,PBM E-score
1,ACGCTGCT,-0.186
2,GAACTAGA,-0.0244
3,ACTAGCAC,-0.12
4,CCGGTGAC,0.21
5,CTCCGATA,0.275
6,ATTTTATA,0.15
7,AGTTGTAA,-0.137
8,AGCAATGG,0.0364
9,GCTTCTAC,-0.121
10,ATGGTGAG,-0.179
11,GACCAGTC,-0.104
12,AGGACAGA,-0.2
13,TTGTCAAA,-0.00867
14,GTACTCAC,-0.2
15,AAGTAAAG,0.0625
16,TAGGTAGA,-0.12
17,CCTTCAAA,-0.0719
18,ATTCCCAG,0.0187
19,ATATGCTA,-0.0937
20,GCAAATAA,-0.0794
21,CGTCTCTA,-0.0888
22,AACCTTCG,0.144
